Hit rate of the full screen: of about 48,000 compounds, about 120 (0.25%) were called active. Not shown: some 4% with an inconclusive outcome. The call rests on the fitted dose curve; in most records, active means well fitted activation curve with a large enough effect; inconclusive means small, poorly fitted or top-dose-only effect, or another doubt; inactive means no such curve, though single readings can be large or run the other way. Some of the results follow.
assay: Primary qHTS for Identification of Small Molecule Activators of Huntingtin-Antisense Promoter Activity; conditions: HEK293 HTT-AS promoter firefly luciferase reporter, 24 h; series mostly up to 57.5 µM; activity change, positive = activation: at the top concentration; further: nearly all actives have a fitted effect of over 55% in size
Method in brief: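 Luminescence was read after Dual-Glo reagent and a 10 min room-temperature incubation. Values were normalized to vehicle (0% activity) and zero RLU (-100% activity). Reporter HEK293 cells had been exposed to compounds (up to 57.5 uM final) for 24 h.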
Potency means the concentration at half of the fitted maximal effect.

Potency, active:
Cc1cc(NC(=O)c2oc3c(c2C)-c2[nH]ncc2CC3)ccc1Br 1120 nM

Activity change, positive = activation, inactive:
CCCCOc1ccc(C(=O)Nc2sc3c(c2C(=O)OCC)CCCCC3)cc1 -15%
COc1ccc(Nc2ncc(C(=O)Nc3ccc(F)cc3F)c3ccccc23)cc1 -19.4%
CCOCCCn1c(SCC(=O)Nc2ccc(F)cc2)nc2c(sc3ccccc32)c1=O 2.68%
CCC(C(=O)Nc1cc(-c2cn3cccnc3n2)ccc1C)c1ccccc1 (stereo unspecified) -6.08%
COc1ccccc1N1CCN(S(=O)(=O)c2ccc3c(c2)CCCN3C(C)=O)CC1 -23.4%
CN(C)CCNC(=O)c1ccc2nc(Cc3ccccc3)oc2c1 9.42%
Cc1ccc(Cl)cc1N1CCN(C(=O)c2sc3nc4n(c(=O)c3c2C)CCC4)CC1 -10.9%
CCN(CC)C(=O)Cn1cc(SCC(=O)Nc2cc(OC)ccc2OC)c2ccccc21 -35.5%
COc1ccc(Cl)cc1NC(=O)CSc1cc(C)[nH]c(=O)n1 -8.38%
Cc1cccn2c(=O)cc(CSc3nnc(NC(=O)C(C)C)s3)nc12 -11.5%
CCC(CC)C(=O)Nc1ccc2nc(SCC(=O)N3CCOCC3)sc2c1 -24.7%
Cc1ccccc1C(=O)Nc1sc2c(c1C(=O)N1CCCCC1)CCC(C(C)(C)C)C2 (stereo unspecified) 2.11%
O=C(NCc1ccc(Cl)cc1)C1CCN(S(=O)(=O)c2ccc(F)cc2)CC1 -15.4%
CSc1ccc(CCNC(=O)c2c(C)nn(-c3ccc(F)cc3)c2-n2cccc2)cc1 -35.2%
CCC(C)n1c(SCc2ccc(F)cc2Cl)nc2ccsc2c1=O (stereo unspecified) -36.8%
Cc1ccc(CSc2nc3ccc(NC(=O)CC(C)C)cc3s2)cc1 -17.8%
CCOC(=O)c1noc2ncn(Cc3ccc([N+](=O)[O-])cc3)c(=O)c12 5%
COc1ccc(C(=O)NCC(c2ccc(N(C)C)cc2)N2CCOCC2)cc1 (stereo unspecified) -15%
CC[N+](CC)(CC)CCOc1cccc(OCC[N+](CC)(CC)CC)c1OCC[N+](CC)(CC)CC
O=c1oc2ccccc2cc1-c1nc(-c2cccc(Cl)c2)cs1 -0.137%
COc1ccccc1N1CCN(c2ncc3c(n2)CCN(Cc2ccc(C)s2)C3)CC1 -21.5%
COc1ccc(Cl)cc1NC(=O)CSc1nc(-c2cccs2)cc(C(F)(F)F)n1 -32.8%
COc1ccccc1Cn1c(C2CC(=O)N(c3ccccc3OC)C2)nc2ccccc21 (stereo unspecified) -26.5%
NCc1ccc(S(N)(=O)=O)cc1 -3.89%
O=C(CSC1=Nc2ccccc2C2=NC(Cc3ccccc3)C(=O)N12)Nc1cccc(Cl)c1 (stereo unspecified) -28%
CCc1ccc2occ(CC(=O)Nc3c(C(=O)c4ccccc4)oc4ccccc34)c2c1 -11.4%
CCOC(=O)c1c(-c2ccccc2)oc2ccc(NS(=O)(=O)c3ccc(C)cc3)cc12 -42.9%
CCN1C(=O)c2ccccc2Sc2ccc(NC(=O)Nc3cc(C)cc(C)c3)cc21 -45.9%
Cc1ccc(CNC(=O)c2cc3sc(Cl)cc3n2C)cc1 -15%
CCOc1ccccc1CNS(=O)(=O)c1ccc(-c2cnc(C3CC3)o2)cc1 -56.8%
COc1ccc(-c2noc(-c3nnn(-c4ccc(C)cc4C)c3C)n2)cc1 5.75%
COc1ccc(NC(=O)CSC2=Nc3ccccc3C3=NC(CCC(=O)NC4CCCCC4)C(=O)N23)cc1Cl (stereo unspecified) -10.5%
COc1ccc(S(=O)(=O)c2cn(C)c3cc(N4CCCCCC4)c(F)cc3c2=O)cc1 -10.7%
Cc1ccc(-n2nc(CO)c(C(=O)NCc3cccnc3)n2)cc1C -9%
O=C(Nc1cc(F)ccc1F)C1CCN(C(=O)c2cnn(-c3ccccc3)c2-n2cccc2)CC1 -29.7%
Cc1ccc(NC(=O)CSc2nncn2C)c(C)c1 -0.983%
COc1ccc(Cl)c2sc(NC(=O)c3ccc(S(=O)(=O)N4CCCC4)cc3)nc12 -14.6%
COc1ccccc1NC(=O)CSCc1cc(=O)c2cccc(Cl)c2[nH]1 -21.1%
COc1ccc(OC)c(C2CC(=O)Nc3c2c(=O)n(C)c2ncnn32)c1 (stereo unspecified) -12.6%
Cc1ccc(C)c(CN2CCCN(Cc3ccccc3C)S2(=O)=O)c1 -22.2%
Cc1cc(C)cc(NC(=O)CN2C(=O)c3ccccc3Sc3ccc(C(=O)N4CCCC4)cc32)c1 -20.2%
CCOC(=O)c1ccc(Nc2c(-c3ccc(N(C)C)cc3)nc3nc[nH]n23)cc1 7.54%
O=C(CN1C(=O)CCc2cc(Br)ccc21)Nc1ccc(OC(F)(F)F)cc1 -23%
COc1ccccc1NC(=O)CSc1nnc2c(n1)[nH]c1ccccc12 -16.4%
O=c1[nH]nc(Sc2ncc([N+](=O)[O-])s2)n1-c1ccc2c(c1)OCCO2 -94.7%
COc1cccc(CNC(=O)c2nn(C)c3c2CSc2ccccc2-3)c1 -9.51%
COc1ccc(NC(=O)c2cnc3cc(C)ccn3c2=O)c(OC)c1 -16.6%
COc1ccc(Cn2c(=O)n(-c3ccc(C)cc3)c(=O)c3c2c2cc(C)ccc2n3C)cc1 -5.48%
Cc1ccc2nc(-c3ccc(Cl)c(NC(=O)COc4ccc([N+](=O)[O-])cc4)c3)oc2c1 0.626%
CCOC(=O)c1c(C)oc2ccc(N(C(=O)c3ccncc3)S(=O)(=O)c3ccc(F)cc3C)cc12 -47.6%
O=C(Cn1c(=O)n(-c2ccccc2)c(=O)c2c3c(sc21)CCC3)c1ccc(Br)cc1 -7.36%
CC(C)CCNC(=O)CCCn1c(=O)c2cccn2c2ccccc21 -2.97%
Cc1cccc(CS(=O)(=O)Cc2ccc(C(=O)NCc3ccc(F)cc3)o2)c1 -29.3%
COc1cccc(NC(=O)c2cnc(SCC(=O)N3CCCc4ccccc43)n(C)c2=O)c1 -8.87%
CCN(C(=O)c1cc2c(=O)oc3ccccc3c2s1)c1ccccc1F -3.89%
Cc1noc(-c2ccc(-c3noc(-c4ccc(Cl)cc4)n3)cc2)n1 8.26%
CC(=C(CCOC(=O)C(C)C)SSC(CCOC(=O)C(C)C)=C(C)N(C=O)Cc1cnc(C)nc1N)N(C=O)Cc1cnc(C)nc1N 1.19%
COCCNC(=O)CCn1nc(-c2ccc(Cl)cc2)c2ccccc2c1=O -4.44% [at 11.5 µM, percent change from vehicle, -100% = no light]
CC(=O)N1CCCc2cc(S(=O)(=O)Nc3ccc(Cl)cc3F)ccc21 -26.5%
CC1CCN(C(c2ccc(F)cc2)c2sc3nc(-c4ccco4)nn3c2O)CC1 (stereo unspecified) -10.8%
COc1ccc(CC(=O)N2CCc3c([nH]c4ccccc34)C2c2ccc(SC)cc2)cc1 (stereo unspecified) -29.3%
COc1ccc(C(=O)N2CCN(C(=O)COc3ccccc3)CC2)cc1OC 8.24%
O=C(c1ccc2c(c1)N(Cc1ccccc1)C(=O)c1ccccc1S2(=O)=O)N1CCOCC1 -8.84%
COc1ccc(NC(=O)C(NC(=O)/C=C\c2ccc3c(c2)OCO3)c2ccc(C)cc2)cc1 (stereo unspecified) 1.1%
CCc1ccc(-n2c(N3CCN(c4ccc(F)cc4)CC3)nc3ccccc3c2=O)cc1 -29%
COc1ccc(C)cc1NC(=O)Cn1nc(N2CCN(c3ccccc3OC)CC2)ccc1=O -22.5%
COc1ccccc1Cc1nc2ccccc2nc1SCC(=O)NCc1ccc(C)cc1 -8.14%
COc1ccccc1CNC(=O)C(=O)NCC(c1cccnc1)N1CCN(c2ccccc2)CC1 (stereo unspecified) -33.5%
Cc1noc(C)c1S(=O)(=O)N(CC(=O)NCc1ccccc1)c1ccc(C(C)C)cc1 -20%
O=C(COCc1cc(-c2ccco2)on1)Nc1cc(Cl)ccc1O -9.68%
COc1ccc(-c2nc(SCC(=O)NC3CCCC3)c(-c3ccc(F)cc3)[nH]2)cc1OC -17.1%
COc1ccc(NC(=O)Cn2c(=O)c3cccn3c3ccccc32)cc1 -13.2%
COc1ccc(S(=O)(=O)NCCc2sc(-c3cccnc3)nc2C)cc1 -12.9%
O=C(NC1CC(=O)N(c2ccc(F)cc2)C1)c1ccc(S(=O)(=O)N2CCOCC2)cc1 (stereo unspecified) -13.6%
Cc1ccc(-n2ncc3c(Nc4ccc5c(c4)OCCO5)ncnc32)cc1Cl 0.495%
CCOCCCN1C(=O)CN(C2CCCCCC2)C(=O)C1c1ccc(OCC)c(OC)c1 (stereo unspecified) 10.4%
COc1cc(OC)cc(C(=O)Nc2ccc3c(c2)CCCN3C(=O)c2cccs2)c1 -25.7%
CCSc1nc(-c2ccccc2)nc2c1Cc1c(CO)cnc(C)c1O2 2.66%
CCOC(=O)C1CCN(C(=O)C2CCN(S(=O)(=O)c3c(C)noc3/C=C/c3ccc(C)cc3)CC2)CC1 -39.2%
CCCCN(C)S(=O)(=O)c1ccc(C(=O)Nc2sc3c(c2C(=O)OCC)CCN(C(C)C)C3)cc1 -24.7%
CCOC(=O)c1[nH]c(C)c(CCC(=O)N2CCN(c3ccc(OC)cc3)CC2)c1C -15.1%
O=C(O)CCC(=O)N1CCc2cc(S(=O)(=O)NCc3ccc(F)cc3)ccc21 10.3%
COc1ccc(NC(=O)c2cccc3c(=O)c4c([nH]c23)CCCC4)cc1 -18.1%
Cc1ccc(C(C)C)c(OCC(=O)Nc2ccc3c(c2)nc(CCNC(=O)c2ccco2)n3C)c1 -9.35%
CCCC1=Nc2cc(C(=O)NCc3ccccc3)ccc2Sc2ccccc21 -36.8%
O=C1OC2(c3ccccc31)c1cc(Br)c(O)c(Br)c1Oc1c2cc(Br)c(O)c1Br -10.4%
CC/C(=C(\c1ccccc1)c1ccc(OCCN(C)C)cc1)c1ccccc1 -29.1%
O=C(Nc1cccc(Br)c1)c1cc(S(=O)(=O)N2CCCCC2)c[nH]1 -5.52%
COc1ccc(-c2nc3n(n2)C(c2ccc(O)cc2)C(C(=O)Nc2cccnc2)=C(C)N3)cc1OC (stereo unspecified) -9.42%
Cc1cc(S(=O)(=O)Nc2cc3c(cc2N2CCOCC2)n(C)c(=O)c(=O)n3C)ccc1F -13.5%
CCc1oc2ccccc2c1C(=O)c1cc(Br)c(O)c(Br)c1 -43.3%
CCOc1ccc(CCNC(=O)NCc2noc3ccc(C)cc23)cc1 -18.6%
CCOCCc1nn2c(=O)cc(COC(=O)c3ccc(NC(=O)c4cccs4)cc3)nc2s1 -9.51%
Cc1cccc(C(=O)N2CCc3cc(CNC(=O)c4ccco4)ccc32)c1 -48.2%
CCCNC(=O)c1ccc(Cn2c(SCC(=O)NC(C)C)nc3ccccc3c2=O)cc1 -8.51%

— PubChem BioAssay AID1508624 (National Center for Advancing Translational Sciences (NCATS), 2021)
